# From the supplement of paper PMC12217912
# The other results are listed elsewhere or left out. The full chains were built here from the parent and the listed change. Values near 0.05 are background.
# B1: TEV protease; numbered along this chain (parent)
# chain: MGESLFKGPRDYNPISSSICHLTNESDGHTTSLYGIGFGPFIITNKHLFRRNNGTLVVQSLHGVFKVKDTTTLQQHLVDGRDMIIIRMPKDFPPFPQKLKFREPQREERICLVTTNFQTKSMSSMVSDTSCTFPSGDGIFWKHWIQTKDGQCGSPLVSTRDGFIVGIHSASNFTNTNNYFTSVPKNFMELLTNQEAQQWVSGWRLNADSVLWGGHKVFMVKPEEPFQPVKEATQL
# Variants of: B1
# Assay: raw area under fraction-flipped curve 0-4 h after induction (AUC4h, not background-subtracted), DNA-recorder readout of cleavage of the substrate (dimensionless); higher = more cleavage of the substrate by the protease variant
# Details: temperature: 34 °C; time window: 0-4 h after rhamnose induction
# 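Also: Bxb1 expression induced with 0.2% (w/v) L-rhamnose at OD600 near 0.5, cultures sampled hourly, flipped fraction per protease–substrate barcode pair counted by paired-end Illumina sequencing.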
Variant,area with substrate EALYFQS,area with substrate ECLYFQS,area with substrate EDLYFQS,area with substrate EELYFQS,area with substrate EGLYFQS,area with substrate EHLYFQS,area with substrate EILYFQS,area with substrate EKLYFQS,area with substrate ELLYFQS,area with substrate EMLYFQS
Q227M,0.108,0.0938,0.11,0.11,0.0893,0.114,0.0885,0.118,0.0713,0.0851
Q227P,0.101,0.158,0.161,,,0.0901,0.0976,0.11,,0.101
P228N,0.132,0.104,,0.124,0.113,,0.0978,0.116,,
V229H,0.092,0.13,0.119,,,,,,0.128,0.102
V229L,0.143,0.0814,0.125,0.161,0.124,,0.0964,0.122,0.111,
V229Y,0.112,0.0882,,0.0741,,0.13,0.0797,0.107,0.103,
K230G,0.0994,0.11,0.151,0.122,0.0519,0.127,0.134,0.105,0.087,0.112
E231G,0.112,0.109,0.117,0.121,,0.107,0.107,0.109,0.0839,
E231M,0.0939,0.0612,,0.116,0.096,,0.0752,0.0981,,0.0954
A232P,0.108,0.101,0.135,,0.0908,,,,0.0981,0.159
T233D,0.141,0.127,0.194,,,,,,,0.099
T233S,0.115,0.0963,0.024,0.115,0.111,0.121,,0.131,0.111,0.101
L235M,0.0843,0.0994,0.114,0.137,0.101,0.153,0.071,0.0909,0.0766,0.062
T72P,,0.0643,,,,0.0809,0.0769,0.075,,
V200E,,0.0588,,,0.061,,0.0701,,,
K216L,,0.0932,0.0618,,,,,,0.0939,

Variant,area with substrate EALYFQS,area with substrate ECLYFQS,area with substrate EDLYFQS,area with substrate EELYFQS,area with substrate EGLYFQS,area with substrate EHLYFQS,area with substrate EILYFQS,area with substrate EKLYFQS,area with substrate ELLYFQS,area with substrate EMLYFQS
Q74H,,,,0.108,,,0.0842,,,
V126G,,,,0.118,,,0.114,0.119,,
N178I,,,,0.0768,,,0.0777,,0.0936,
M188C,,,,0.138,,,,,0.0513,
N52I,,,,,,,0.0607,,0.0761,0.0577
K68F,,,,,0.0832,,,,,
I139N,,,,,0.165,,0.0836,0.0958,,0.107
L191T,,,,,0.0785,,0.074,0.0796,0.0612,0.068
P222M,,,,,0.0732,0.0705,0.0896,0.0965,0.0866,0.113
E103Y,,,,,0.106,,0.0818,,,0.0905
G138Q,,,,,0.0825,,,,0.0947,
L61N,,,,,,0.1,0.0861,0.117,0.0862,0.146
S182W,,,,,,0.0487,,0.0664,0.0625,
H62N,,,,,,,0.105,,0.105,
P94D,,,,,,,0.106,,,0.119

# Same assay, conditions: temperature: 34 °C; time window: 0-4 h after rhamnose induction
Variant,area with substrate EPLYFQS,area with substrate EQLYFQS,area with substrate ERLYFQS,area with substrate ESLYFQS,area with substrate EVLYFQS,area with substrate EWLYFQS,area with substrate EYLYFQS,area with substrate EFLYFQS,area with substrate ETLYFQS
Q227M,0.0975,0.114,0.0936,0.112,0.12,,,,
Q227P,,0.129,,0.127,0.115,0.112,0.121,,
P228N,0.125,0.121,0.109,0.0956,0.0933,0.111,,0.137,
V229H,0.151,,,0.0894,0.0917,,,,
V229L,,0.123,0.162,0.136,0.0587,0.11,,0.117,
V229Y,,0.125,0.0645,0.0887,0.0828,0.0701,,,0.127
K230G,,0.116,0.0919,0.114,0.0888,0.11,0.0944,0.132,0.0882
E231G,0.114,0.114,0.12,0.125,0.0751,0.0919,,0.109,
E231M,0.125,0.107,0.0926,,0.0862,,0.0789,0.148,
A232P,0.11,,0.0902,0.105,0.102,,,,0.103
T233D,0.136,0.122,0.0998,0.114,,,,0.094,
T233S,0.101,0.124,,0.107,0.0886,,,,
L235M,,0.121,0.0482,0.108,0.106,0.0961,,,0.109
T72P,,,,0.0999,,0.0704,,0.127,0.0966
V200E,,,0.0733,0.075,0.0803,,,,
K216L,,,0.0832,0.0993,,0.0804,,,
Q74H,,0.0951,,0.0999,0.0863,,,,0.0989

Variant,area with substrate EPLYFQS,area with substrate EQLYFQS,area with substrate ERLYFQS,area with substrate ESLYFQS,area with substrate EVLYFQS,area with substrate EWLYFQS,area with substrate EYLYFQS,area with substrate EFLYFQS,area with substrate ETLYFQS
V126G,,0.108,,0.136,0.123,,,,
N178I,,0.0783,,,0.0615,0.0888,,,
M188C,,0.107,,0.0961,0.0895,,,,
N52I,,,0.0547,,,,,0.0778,
K68F,0.108,,,,,,,0.0823,0.0999
I139N,0.098,0.143,0.0904,0.108,0.0829,,,0.0777,0.107
L191T,0.0629,0.0898,0.0826,0.054,0.0892,,,0.076,
P222M,0.0902,,,0.104,,0.0999,,0.0913,
E103Y,,,,,0.0828,0.0745,0.115,,
G138Q,,,0.133,,,,,,
L61N,,0.0766,0.0952,0.0795,0.0994,,,,0.114
S182W,,0.0479,0.0583,0.0627,,0.038,0.052,,0.0423
H62N,,0.144,,0.118,,0.107,,,0.128
P94D,0.0904,0.124,0.119,,,,,,
G35L,,0.0466,,0.0502,0.0483,0.022,,,
G35M,,,0.0421,,,,,,
